{"source": "the supplement of paper PMC11369174", "about": "“Proteome-scale characterisation of motif-based interactome rewiring by disease mutations” (Molecular Systems Biology, 2024)", "note": "Some of the results follow. Read counts after selection give these values, which scatter widely.", "data": [{"biological_target": "T1, ZMYND11_coiled-coil-MYND__Q15326_480_602", "T1 chain": "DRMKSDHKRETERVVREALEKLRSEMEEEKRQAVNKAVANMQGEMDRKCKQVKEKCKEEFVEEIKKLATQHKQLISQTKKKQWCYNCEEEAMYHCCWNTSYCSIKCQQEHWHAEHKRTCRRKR", "experiment": "mean normalised NGS count of phage-displayed peptide after selection on bait (% of reads); higher = stronger enrichment / binding", "conditions": "replicate selections in which the peptide was seen: 3", "values": [{"binder": "PPASTAAGMPSLQHST", "note": "[CREBBP 858-873 mut Q92793.T872S]", "mean normalised NGS count": 0.0571}, {"binder": "ASAAGYEATMPTLPQN", "note": "[PINK1 166-181 mut Q9BXM7.V170G]", "mean normalised NGS count": 0.0321}, {"binder": "ASPAVYEATMPTLPQN", "note": "[PINK1 166-181 mut Q9BXM7.A168P]", "mean normalised NGS count": 0.315}, {"binder": "HIPDLSSFTMPLLDGD", "note": "[PRKAG2 36-51 mut Q9UGJ0.A44T]", "mean normalised NGS count": 0.00653}, {"binder": "VLPNAVLPPSLDHVYV", "note": "[KMT2B 1526-1541 mut Q9UMN6.A1541V]", "mean normalised NGS count": 0.031}]}, {"biological_target": "T1, ZMYND11_coiled-coil-MYND__Q15326_480_602", "experiment": "mean normalised NGS count of phage-displayed peptide after selection on bait (% of reads); higher = stronger enrichment / binding", "conditions": "replicate selections in which the peptide was seen: 4", "values": [{"binder": "PDAPPPPNIVDVRHDS", "note": "[TTN 21103-21118 wt]", "mean normalised NGS count": 12.2}, {"binder": "AAGQPPHLTSAQDHDT", "note": "[CDT1 104-119 mut Q9H211.Q117H]", "mean normalised NGS count": 0.296}, {"binder": "PPHLTSAQDHDTISEL", "note": "[CDT1 108-123 mut Q9H211.Q117H]", "mean normalised NGS count": 0.0171}]}, {"biological_target": "T1, ZMYND11_coiled-coil-MYND__Q15326_480_602", "experiment": "mean normalised NGS count of phage-displayed peptide after selection on bait (% of reads); higher = stronger enrichment / binding", "conditions": "replicate selections in which the peptide was seen: 5", "values": [{"binder": "TDQQPPNLISESAIPT", "note": "[CREBBP 538-553 mut Q92793.L551I]", "mean normalised NGS count": 12.2}]}, {"biological_target": "T1, ZMYND11_coiled-coil-MYND__Q15326_480_602", "experiment": "mean normalised NGS count of phage-displayed peptide after selection on bait (% of reads); baits are purified protein domains named by gene / domain / UniProt id / residues; peptides come from disordered regions of human proteins; higher = stronger enrichment / binding", "conditions": "replicate selections in which the peptide was seen: 6", "values": [{"binder": "NVAFGQELDPPWLERV", "note": "[ABCC6 710-725 wt]", "mean normalised NGS count": 8.35}, {"binder": "NVAFGQELGPPWLERV", "note": "[ABCC6 710-725 mut O95255.D718G]", "mean normalised NGS count": 14}, {"binder": "EELAYDRMPTLERGQQ", "note": "[MLC1 8-23 mut Q15049.R22Q]", "mean normalised NGS count": 6.61}, {"binder": "EELAYDRMPTLERGRQ", "note": "[MLC1 8-23 wt]", "mean normalised NGS count": 0.1}, {"binder": "YDRMPTLERGQQDPAS", "note": "[MLC1 12-27 mut Q15049.R22Q]", "mean normalised NGS count": 0.534}, {"binder": "YDRMPTLERGRQDPAS", "note": "[MLC1 12-27 wt]", "mean normalised NGS count": 0.0783}, {"binder": "TDQQPPNLISESALPT", "note": "[CREBBP 538-553 wt]", "mean normalised NGS count": 0.434}, {"binder": "PPNLISESAIPTSLGA", "note": "[CREBBP 542-557 mut Q92793.L551I]", "mean normalised NGS count": 31.7}, {"binder": "PPNLISESALPTSLGA", "note": "[CREBBP 542-557 wt]", "mean normalised NGS count": 0.698}, {"binder": "PPHLTSAQDQDTISEL", "note": "[CDT1 108-123 wt]", "mean normalised NGS count": 0.162}, {"binder": "SDKSSDSPPILEAIRT", "note": "[DNMT3B 28-43 mut Q9UBC3.Q30K]", "mean normalised NGS count": 0.584}, {"binder": "SDQSSDSPPILEAIRT", "note": "[DNMT3B 28-43 wt]", "mean normalised NGS count": 6.53}]}]}
